The assay concerns CD8F1 mice, subcutaneous mammary adenocarcinoma, T/C%. In words: NCI In Vivo Anticancer Drug Screen. Data for tumor model Mammary Adenocarcinoma CD8F1 (subcutaneous) in CD8F1. The note with it: higher = larger tumour. The protocol: The antitumor activity of compounds was measured in mice bearing transplantable tumors. Survival or tumor size were measured and the results are expressed as the measurement made in the treated group (T) divided by the measurement made in the vehicle treated control group (C). The tumor model used in this assay is Mammary Adenocarcinoma CD8F1 (subcutaneous) in CD8F1

Where [1] appears, read: endpoint: median tumor weight change, dose: 1000.0 mg/kg/injection, schedule: Q01DX001 (ip), vehicle: saline.
[2] abbreviates: endpoint: median tumor weight change, dose: 3.0 mg/kg/injection, schedule: Q01DX001 (ip), vehicle: saline.
The mark [3] stands for this setting: endpoint: median tumor weight change, dose: 250.0 mg/kg/injection, schedule: Q01DX001 (ip), vehicle: saline with Tween-80.
Where [4] appears, read: endpoint: median tumor weight change, dose: 500.0 mg/kg/injection, schedule: Q01DX001 (ip), vehicle: saline with Tween-80.
[5] abbreviates: endpoint: median tumor weight change, dose: 125.0 mg/kg/injection, schedule: Q01DX001 (ip), vehicle: saline with Tween-80.
The mark [6] stands for this setting: endpoint: median tumor weight change, dose: 500.0 mg/kg/injection, schedule: Q01DX001 (ip), vehicle: Klucel (hydroxypropylcellulose) (HPC).

Records with an inconclusive call do not appear. Not every entry of the source has a single result; some have several. Only these are listed. There may be further records. The records of an entry do not match, cause unknown; dose, time, organism, isomer or construct need not be as stated for each record. Starred links: 1 amine or outer side, 2 acyl side, 3 side chain; linkers in the order of their positions; H or OH if unused. Positions of bridges follow the written chain, without caps; N, C: chain ends. Non-standard residues stand in square brackets, D forms with d. Residues, ends and D or L forms follow the SMILES beside them. Chains are numbered I, II in the order given. Actinocin(1to9) = Cc1c2oc3c(C)ccc(C(=O)[*:2])c3nc-2c(C(=O)[*:1])c(N)c1=O; NMeV = CN[CH](C(=O)O)C(C)C; Aze = O=C(O)[CH]1CCN1; Sar = CNCC(=O)O

Regarding `COc1cccc2c1C(=O)c1c(O)c3c(c(O)c1C2=O)C[C@@](O)(C(=O)CO)C[C@@H]3OC1CC(N)C(O)C(C)O1` (stereo partly drawn), the T/C is 59 % of control and 106 % of control (endpoint: mean tumor weight, dose: 1.0 mg/kg/injection, schedule: Q07DX006 (ip), vehicle: saline); 9 % of control and 90 % of control (endpoint: mean tumor weight, dose: 2.0 mg/kg/injection, schedule: Q07DX006 (ip), vehicle: saline); -57 % of control and 2 % of control (endpoint: median tumor weight change, dose: 10.0 mg/kg/injection, schedule: Q01DX001 (ip), vehicle: water).
Regarding `COc1ccc(Cl)[n+]([O-])n1`, the T/C was 59 % of control and 85 % of control (endpoint: median tumor weight change, dose: 31.25 mg/kg/injection, schedule: Q01DX001 (ip), vehicle: Klucel (hydroxypropylcellulose) (HPC)); 54 % of control and 89 % of control (endpoint: median tumor weight change, dose: 62.5 mg/kg/injection, schedule: Q01DX001 (ip), vehicle: Klucel (hydroxypropylcellulose) (HPC)).
For `Nc1ccc(S(=O)(=O)Nc2cnc3c(Cl)cccc3n2)cc1`, the T/C was 90 % of control and 156 % of control (endpoint: median tumor weight change, dose: 250.0 mg/kg/injection, schedule: Q01DX001 (ip), vehicle: DMSO); 16 % of control and 88 % of control (endpoint: median tumor weight change, dose: 1000.0 mg/kg/injection, schedule: Q01DX001 (ip), vehicle: DMSO).
Take `CCOC(=O)C(N)CSC(=O)NC` (stereo not drawn): the T/C (endpoint: median tumor weight change, dose: 125.0 mg/kg/injection, schedule: Q01DX001 (ip), vehicle: saline) is 75 % of control and 101 % of control; the T/C under setting [1] is 16 % of control and 58 % of control.
`N=C(N)SCc1c2ccccc2c(CSC(=N)N)c2ccccc12`: where the note is “endpoint: median tumor weight change, dose: 400.0 mg/kg/injection, schedule: Q01DX001 (ip), vehicle: suspension in saline”, the T/C was -7 % of control and 75 % of control.
On to `NC(CCC(=O)NC(CS)C(=O)NCC(=O)O)C(=O)O` (stereo not drawn), for which the T/C (endpoint: median tumor weight change, dose: 250.0 mg/kg/injection, schedule: Q01DX001 (ip), vehicle: saline) was 61 % of control and 119 % of control; the T/C under setting [1] is 77 % of control and 108 % of control; the T/C (endpoint: median tumor weight change, dose: 2000.0 mg/kg/injection, schedule: Q01DX001 (ip), vehicle: saline) was 73 % of control and 193 % of control.
As for `CC(C)NCC(O)COc1ccc(O)c(O)c1` (stereo not drawn), the T/C under setting [2] is 85 % of control and 152 % of control.
`Nc1ncnc2c1ncn2C1OC(CO)C(O)C1O` (stereo not drawn): the T/C reads like this: (endpoint: median tumor weight (est.), dose: 32.0 mg/kg/injection, schedule: Q07DX005 (ip), vehicle: Klucel (hydroxypropylcellulose) (HPC)) 119 % of control and 191 % of control; (endpoint: median tumor weight (est.), dose: 64.0 mg/kg/injection, schedule: Q07DX005 (ip), vehicle: Klucel (hydroxypropylcellulose) (HPC)) 63 % of control and 113 % of control; (endpoint: median tumor weight (est.), dose: 256.0 mg/kg/injection, schedule: Q07DX005 (ip), vehicle: Klucel (hydroxypropylcellulose) (HPC)) 38 % of control, 102 % of control, 112 % of control; (endpoint: median tumor weight (est.), dose: 512.0 mg/kg/injection, schedule: Q07DX005 (ip), vehicle: Klucel (hydroxypropylcellulose) (HPC)) 94 % of control and 173 % of control.
For `CC[C@H](CC[C@@H](C)C1CC[C@H]2[C@@H]3CC=C4C[C@@H](OP(=O)(N5CC5)N5CC5)CC[C@]4(C)[C@H]3CC[C@]12C)C(C)C` (stereo partly drawn), the T/C under setting [3] is 54 % of control and 81 % of control; the T/C under setting [4] is 35 % of control and 87 % of control.
In the case of `CCCCCC1c2cc(O)ccc2OC1N1CCOCC1` (stereo not drawn), the T/C runs as follows: under setting [5], 59 % of control and 90 % of control; under setting [4], 65 % of control and 119 % of control; (endpoint: median tumor weight change, dose: 1000.0 mg/kg/injection, schedule: Q01DX001 (ip), vehicle: saline with Tween-80) 39 % of control and 82 % of control.
As for `Cc1c2oc3c(C)ccc(C(=O)NC4C(=O)NC(C(C)C)C(=O)N5CCCC5C(=O)N(C)CC(=O)N(C)C(C(C)C)C(=O)OC4C)c3nc-2c(C(=O)NC2C(=O)NC(C(C)C)C(=O)N3CCC3C(=O)N(C)CC(=O)N(C)C(C(C)C)C(=O)OC2C)c(N)c1=O` (stereo not drawn) (I: TV[Aze][Sar][NMeV] / II: TVP[Sar][NMeV]; ester I:1-I:C, II:1-II:C; linker I:N-II:N via Actinocin(1to9); configuration not given here), the T/C runs as follows: (endpoint: median tumor weight (est.), dose: 75.0 micrograms/kg/injection, schedule: Q07DX005 (ip), vehicle: saline + alcohol) 12 % of control and 64 % of control; (endpoint: median tumor weight (est.), dose: 150.0 micrograms/kg/injection, schedule: Q07DX005 (ip), vehicle: saline + alcohol) 35 % of control and 108 % of control.
Take `Nc1n[n+](-c2ccccc2)no1`: the T/C is, setting by setting: (endpoint: median tumor weight (est.), dose: 6.25 mg/kg/injection, schedule: Q07DX005 (ip), vehicle: water) 16 % of control and 106 % of control; (endpoint: median tumor weight (est.), dose: 12.5 mg/kg/injection, schedule: Q07DX005 (ip), vehicle: water) 57 % of control and 108 % of control; (endpoint: median tumor weight (est.), dose: 25.0 mg/kg/injection, schedule: Q07DX005 (ip), vehicle: water) 15 % of control and 113 % of control.
Consider `COc1cc2c3c(cccc3c1)C(=O)N(CCN(C)C)C2=O`, for which the T/C was 73 % of control and 99 % of control (endpoint: median tumor weight change, dose: 50.0 mg/kg/injection, schedule: Q01DX001 (ip), vehicle: saline with Tween-80); 45 % of control and 90 % of control (endpoint: median tumor weight change, dose: 100.0 mg/kg/injection, schedule: Q01DX001 (ip), vehicle: saline with Tween-80).
Turning to `CC1OC1C(=O)C1(O)C(C)C(O)C23OC2(C(O)c2c(O)cccc2C3=O)C1O` (stereo not drawn), the T/C was 43 % of control and 110 % of control (endpoint: median tumor weight change, dose: 5.0 mg/kg/injection, schedule: Q01DX001 (ip), vehicle: Klucel (hydroxypropylcellulose) (HPC)); 30 % of control, 87 % of control, 95 % of control (endpoint: median tumor weight change, dose: 20.0 mg/kg/injection, schedule: Q01DX001 (ip), vehicle: Klucel (hydroxypropylcellulose) (HPC)).
Regarding `CCCCOC(=O)/C=C(\Br)C(=O)OCCCC`, the T/C (endpoint: median tumor weight (est.), dose: 50.0 mg/kg/injection, schedule: Q07DX005 (ip), vehicle: saline with Tween-80) was 86 % of control and 160 % of control.
Turning to `CCOC1=Cc2c(oc3c(C(C)(C)C)cc(OCC)cc23)OC(C(C)(C)C)=C1`, the T/C (endpoint: median tumor weight change, dose: 31.25 mg/kg/injection, schedule: Q01DX001 (ip), vehicle: saline with Tween-80) was 70 % of control and 103 % of control; the T/C under setting [5] is 61 % of control and 115 % of control; the T/C under setting [3] was 61 % of control and 106 % of control.
Take `CC[C@@]1(O)C[C@H](OC2CC(N(C)C)C(OC3CC(O)C(O[C@@H]4O[C@@H](C)C(=O)C=C4N)C(C)O3)C(C)O2)c2c(cc3c(c2O)C(=O)c2c(O)ccc(O)c2C3=O)[C@H]1C(=O)OC` (stereo partly drawn): the T/C by setting is: (endpoint: median tumor weight (est.), dose: 2.0 micrograms/kg/injection, schedule: Q07DX005 (ip), vehicle: Klucel (hydroxypropylcellulose) (HPC)) 84 % of control and 195 % of control; (endpoint: median tumor weight (est.), dose: 8.0 micrograms/kg/injection, schedule: Q07DX005 (ip), vehicle: Klucel (hydroxypropylcellulose) (HPC)) 122 % of control and 174 % of control; (endpoint: median tumor weight (est.), dose: 16.0 micrograms/kg/injection, schedule: Q07DX005 (ip), vehicle: Klucel (hydroxypropylcellulose) (HPC)) 72 % of control and 189 % of control.
Consider `COc1cc2c(c(OC)c1OC)-c1ccc(OC)c(=O)cc1[C@@H](NC(C)=O)CC2`, for which the T/C by setting is: (endpoint: median tumor weight change, dose: 1.5 mg/kg/injection, schedule: Q01DX001 (ip), vehicle: saline) 28 % of control and 74 % of control; under setting [2], -23 % of control and 3 % of control.
As for `C1OC1CN1CCN(CC2CO2)CC1` (stereo not drawn), the T/C (endpoint: median tumor weight (est.), dose: 6.25 mg/kg/injection, schedule: Q07DX005 (ip), vehicle: saline) is 9 % of control and 84 % of control.
Consider `COc1nc(C(Cl)(Cl)Cl)c(Cl)c(OC)c1Cl`, for which the T/C is, setting by setting: (endpoint: median tumor weight change, dose: 90.0 mg/kg/injection, schedule: Q01DX005 (ip), vehicle: Klucel (hydroxypropylcellulose) (HPC)) -24 % of control and 27 % of control; (endpoint: median tumor weight change, dose: 135.0 mg/kg/injection, schedule: Q01DX005 (ip), vehicle: Klucel (hydroxypropylcellulose) (HPC)) -32 % of control and 15 % of control; (endpoint: median tumor weight change, dose: 250.0 mg/kg/injection, schedule: Q01DX001 (ip), vehicle: Klucel (hydroxypropylcellulose) (HPC)) 39 % of control, 64 % of control, 84 % of control; under setting [6], 5 % of control, 49 % of control, 66 % of control; (endpoint: median tumor weight change, dose: 1000.0 mg/kg/injection, schedule: Q01DX001 (ip), vehicle: Klucel (hydroxypropylcellulose) (HPC)) -53 % of control, -1 % of control, 11 % of control.
Consider `Oc1c(Cl)cc(Cl)cc1C=NCCSc1ccc(Cl)cc1`, for which the T/C under setting [6] was 51 % of control and 81 % of control.

These data come from PubChem BioAssay AID220 (DTP/NCI, 2004).
